# Reference: article PMC4336329 (PLoS ONE, 2015)
# The campaign covered roughly 310,000 compounds. About 14,000 (4.5%) showed an effect of 50% or more. The effect is printed as a negative number. This is one part of the list. Where a SMILES comes first, the peptide text is derived from it. The star is where a group is joined. Cbz = O=C(OCc1ccccc1)*; Boc = CC(C)(C)OC(=O)*
# Biological target: human ether-à-go-go-related gene (hERG) potassium channel (human, UniProt Q12809)
# Experiment: primary screen, population patch clamp on CHO cells stably expressing hERG
# 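Also: peak tail current of the secondary pulse compared with the same well before compound.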
# Sequence of human ether-à-go-go-related gene (hERG) potassium channel (Q12809 whole entry, looked up): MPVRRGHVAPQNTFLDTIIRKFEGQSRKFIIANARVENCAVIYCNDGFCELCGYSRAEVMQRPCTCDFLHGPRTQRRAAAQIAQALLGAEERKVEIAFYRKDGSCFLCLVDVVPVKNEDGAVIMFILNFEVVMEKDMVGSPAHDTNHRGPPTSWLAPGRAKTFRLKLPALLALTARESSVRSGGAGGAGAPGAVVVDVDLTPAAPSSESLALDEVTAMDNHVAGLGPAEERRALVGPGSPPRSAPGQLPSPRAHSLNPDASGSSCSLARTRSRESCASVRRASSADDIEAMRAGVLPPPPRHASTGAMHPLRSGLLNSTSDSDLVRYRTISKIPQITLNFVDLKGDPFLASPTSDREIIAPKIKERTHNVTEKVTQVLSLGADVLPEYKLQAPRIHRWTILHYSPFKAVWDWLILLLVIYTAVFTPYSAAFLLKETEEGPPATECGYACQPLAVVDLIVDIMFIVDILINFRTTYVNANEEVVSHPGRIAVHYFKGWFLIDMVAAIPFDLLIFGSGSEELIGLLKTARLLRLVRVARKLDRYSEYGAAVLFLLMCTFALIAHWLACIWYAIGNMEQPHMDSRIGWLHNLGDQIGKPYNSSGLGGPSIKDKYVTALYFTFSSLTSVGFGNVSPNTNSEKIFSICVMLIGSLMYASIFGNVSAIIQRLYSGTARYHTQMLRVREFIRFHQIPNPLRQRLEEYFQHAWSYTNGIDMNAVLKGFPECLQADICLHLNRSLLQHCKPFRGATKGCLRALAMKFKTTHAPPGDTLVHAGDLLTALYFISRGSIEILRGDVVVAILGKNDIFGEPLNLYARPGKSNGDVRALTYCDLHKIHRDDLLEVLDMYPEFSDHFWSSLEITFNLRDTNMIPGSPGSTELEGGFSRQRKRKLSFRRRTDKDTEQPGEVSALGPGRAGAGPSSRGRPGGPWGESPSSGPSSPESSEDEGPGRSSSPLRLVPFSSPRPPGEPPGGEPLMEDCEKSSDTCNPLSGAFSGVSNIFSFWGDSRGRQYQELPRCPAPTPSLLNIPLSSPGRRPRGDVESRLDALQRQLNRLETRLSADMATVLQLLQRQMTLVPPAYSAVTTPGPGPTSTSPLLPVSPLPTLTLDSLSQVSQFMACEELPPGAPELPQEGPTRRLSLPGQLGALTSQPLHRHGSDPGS
row,Structure (SMILES),"hERG current change (%, negative = inhibition) at 10uM [%]"
1,COc1ccc(C(CNC(=O)c2ccc(OCc3c(C)noc3C)cc2)N2CCCC2)cc1 (centres unmarked),-28.1
2,CC(C)CC(C(=O)O)C(C)CC(=O)Nc1ccn(-c2ccccc2)n1 (centres unmarked),-13.2
3,Nc1nc(-c2cc3ccccc3o2)cs1,3.34
4,CCC1=NN(C(=O)C(=O)Nc2ccc(OC)cc2)C(O)(C(F)(F)F)C1 (centres unmarked),-2.93
5,COC(=O)[C@@H](CC(C)C)NS(=O)(=O)N(Cc1ccccc1)[C@@H](CC(C)C)C(=O)OC,-1.9
6,COc1ccc2cc(C3(C)NC(=O)N(CC(=O)NCCC4=CCCCC4)C3=O)ccc2c1 (centres unmarked),-1.72
7,CCCNC(=O)c1ccc(N2CCC3(CC2)CC(c2ccccc2)=NO3)c(NC(=O)c2ccco2)c1,-45.9
8,O=C(COC(=O)c1ccccc1Nc1ccccc1)NCc1ccco1,7.39
9,COc1ccccc1NS(=O)(=O)c1cc(NC(=O)Nc2ccc(Cl)cc2Cl)ccc1N1CCCCC1,7.08
10,CC(C)CCNC(=O)CSc1nc2ccccc2c(=O)[nH]1,6.71
11,COC(=O)CNc1nc(OC)nc(N(C)C)n1,10.6
12,S=c1[nH]nc(-c2ccco2)n1-c1ccc(Br)cc1,17.5
13,O=[N+]([O-])C1=C(Nc2cccc3ccccc23)CS(=O)(=O)C1,-11.2
14,Cc1ccc2c(c1)cc1c(=O)n(CC(=O)N3CCC4(CC3)OCCO4)nc(C)n12,-5.63
15,CC1(NC(=O)c2ccccc2)CCN(CCc2cccs2)C1=O (centres unmarked),9.3
16,O=C(CNC(=O)c1ccc(Cl)cc1)OCCN1C(=O)c2ccccc2C1=O,-14.7
17,CC(=O)O.COc1ccc(N2C(=O)C(CC(N)=O)N(NC(=O)CCc3ccccc3)C2=O)cc1 (centres unmarked),2.77
18,O=C1NCCn2nc3ccccc3c21,6.94
19,O=C(Nc1cccnc1)c1ccc([N+](=O)[O-])o1,16.3
20,CCn1c(SCC(=O)Nc2cc(C)on2)nnc1-c1ccccc1,-3.05
21,CCCCCCCCC(=O)N/N=C(\C)c1ccc(O)cc1O,-9.45
22,CCN1C(C)=C(C)S/C1=C1\SC(=S)N(N)C1=O,9.05
23,Cc1cnc(C(=O)Nc2ccc(F)cc2)cn1,-0.2

row,Structure (SMILES),"hERG current change (%, negative = inhibition) at 10uM [%]"
1,CCOc1cc(N2CCOCC2)c(OCC)cc1NC(=O)COc1cccc(Cl)c1,-8.11
2,CCCN(CC(=O)Nc1ccccc1C)C(=O)c1sc2ccccc2c1Cl,-5.03
3,O=C(COc1ccccc1Cl)NCCC1=CCCCC1,-0.394
4,O=C(CCCOc1ccc(Cl)cc1Cl)N/N=C/c1ccc(Cl)cc1,7.5
5,O=S1(=O)c2ccccc2C(CCO)N1Cc1ccccc1 (centres unmarked),7.94
6,C=CCNC(=S)Nc1sc2c(c1C(=O)OCC)CC(C)(CC)OC2 (centres unmarked),28.6
7,CCCn1c(CN2CCCCC2CC)nc2c1c(=O)n(C)c(=O)n2C (centres unmarked),-5.14
8,CC(C[N+](C)(C)C)OC(N)=O.[Cl-] (centres unmarked),11.5
9,CCN(CC)CCN1C(=O)C(=O)/C(=C(/O)c2ccc(C)cc2)C1c1cccnc1 (centres unmarked),1.23
10,CC(=O)c1ccc(OCCCC(=O)Nc2ccc3c(c2)OCCO3)cc1,9.3
11,CCOc1ccc(NC(=O)CSc2nnc(C)n2CC2CCCO2)cc1 (centres unmarked),16
12,CCC(=O)N1CCN(c2ccccc2NC(=O)COc2cccc(C)c2C)CC1,-18
13,CC1CCCN(S(=O)(=O)c2ccc3c(c2)c(=O)nc2ccccn23)C1 (centres unmarked),16.4
14,CC1CN(C(=O)CCC(=O)NCc2ccc(Cl)cc2)c2ccccc2O1 (centres unmarked),-53.6
15,CC1(C)CC(=O)c2cnc(N3CCc4ccccc43)nc2C1,4.43
16,O=C(NCc1ccco1)c1n[nH]c(=O)c2ccccc12,8.18
17,CCOc1ccc(S(=O)(=O)Nc2cccc(C(=O)NCCCn3ccnc3)c2)cc1,10.5
18,Cc1nc(CCNC(=O)Cc2ccc(F)cc2)cs1,18.9
19,CC(=O)Oc1ccc(C(=O)Nc2ccccc2C(=O)N2CCCC2)cc1,17.2
20,CCCOc1ccccc1-c1nc2c([nH]1)c(=O)[nH]c(=O)n2C,8.5
21,CC1CCC(NS(=O)(=O)c2ccc(N3CCCC3=O)cc2)CC1 (centres unmarked),1.51
22,COC(=O)C1=C(C)NC(=O)NC1c1ccsc1 (centres unmarked),0.678
23,Cn1c(N)c(C(=O)COc2ccc(Cl)cc2Cl)c(=O)n(C)c1=O,2.07

row,Structure (SMILES),"hERG current change (%, negative = inhibition) at 10uM [%]"
1,CC1CCN(C(=O)c2cc3ccccc3c(=O)o2)CC1,5.74
2,CCCC(=O)OCC(=O)Nc1cc(Cl)ccc1[N+](=O)[O-],16.8
3,CCOC(=O)c1cc(C(=O)NN)c(C)nc1C,14.2
4,COc1ccc(CC(=O)Nc2ccc(S(=O)(=O)Nc3nccc(C)n3)cc2)cc1,-8.29
5,Cc1ccc(N(CC(=O)NCc2ccccc2)C(=O)CCC(=O)Nc2ccccn2)cc1,-1.93
6,CC(C)(C)OC(=O)NCCCC[C@H](NC(=O)[C@H](Cc1c[nH]c2ccccc12)NC(=O)OCc1ccccc1)C(=O)O (Cbz-Trp-Lys(Boc)-OH),15.8
7,COC(=O)c1cc(C(=O)OC)cc(N2C(=O)CC(NNC(=O)c3ccccc3Br)C2=O)c1 (centres unmarked),4.89
8,CCN(CC)c1ncnc2c1cnn2C,7.53
9,CC(=O)Nc1ccc(S(=O)(=O)Nc2nc(C)nc3sc4c(c23)CCC4)cc1,5.89
10,COc1ccccc1OCCSc1nnnn1-c1ccc(C)cc1,-7.83
11,Cc1coc(C)c1C(=O)CC1(O)C(=O)Nc2cc(Cl)cc(Cl)c21 (centres unmarked),0.843
12,CC(C)(C)n1ncc2c(=O)n(CC(=O)N3CCCc4ccccc43)cnc21,7.97
13,COc1ccc(C2C(C(=O)/C=C/c3ccco3)=C(O)C(=O)N2CCN2CCOCC2)cc1 (centres unmarked),13.3
14,O=C(CSc1nnnn1-c1cccc2ccccc12)N1CCOCC1,-25
15,CCOc1ccc(/C=N/NC(=O)c2ccccc2Cl)cc1CN1CC2CC(C1)c1cccc(=O)n1C2 (centres unmarked),-18.1
16,CC(=O)c1cc(-c2nc3ccccc3n2C)n(C)c1,4.26
17,CCCCCCCCN1[C@@H](CC(=O)O)c2ccc(C(F)(F)F)cc2S1(=O)=O,-3.38
18,O=C(NC(=S)NC1CCSC1=O)c1cccs1 (centres unmarked),15.9
19,COc1ccc([N+](=O)[O-])cc1NC(=O)c1ccccc1N(C)S(C)(=O)=O,2.75
20,N#C/C(=C(/O)CN1CCCC1)c1nc(-c2ccccc2)cs1,1.97
21,COc1ccc([C@H]2CC(=O)c3c(O)cc(O)cc3O2)cc1O,4.3
22,CC(C)Sc1nc2ncnc(N)c2[nH]1,18.6
23,CCn1c(Cc2ccccc2)nnc1SCC(=O)Nc1ccc(N)cc1,0.74

row,Structure (SMILES),"hERG current change (%, negative = inhibition) at 10uM [%]"
1,CCOC(=O)c1ccccc1NC(=O)c1ccc2c(=O)n3c(nc2c1)CCCCC3,-41.3
2,Cc1ccc(Cn2ccc(NC(=O)c3noc4c3CCCCC4)n2)cc1,5.65
3,COC(=O)C1=C(c2cc3ccccc3o2)C[C@@H]2CC[C@H]1N2C(=O)NCCNC(C)=O,10.3
4,O=Cc1c[nH]c2ccc(OCc3ccccc3)cc12,9.68
5,COc1ccc(Cl)cc1N1CC(c2nc3ccccc3[nH]2)CC1=O (centres unmarked),-33.9
6,Cc1ccc(C(=O)COC(=O)c2ccc(Cl)c(N)c2)s1,-2.05
7,CN(C)c1ccc(NC(=O)c2cccc(N3C(=O)C4C5C=CC(C5)C4C3=O)c2)cc1 (centres unmarked),10.3
8,O=C(COC(=O)/C=C/c1cccs1)Nc1cccc(S(=O)(=O)N2CCCC2)c1,2.94
9,Cl.O=C(NCCCn1ccnc1)c1ccc(S(=O)(=O)N2CCOCC2)cc1,8.09
10,Cc1noc(C)c1COc1ccc(C(=O)OCC(=O)Nc2ccc3c(c2)OCO3)cc1,7.08
11,Cc1ccc(C(=O)O/N=C(\N)c2cccnc2)cc1[N+](=O)[O-],-5.2
12,O=C1OC(/C(=C\NCc2ccccc2)[N+](=O)[O-])c2ccccc21 (centres unmarked),-5.17
13,Cc1ccc(S(=O)(=O)CC(=O)NC2CC2)cc1,-7.35
14,COCCNc1c(-c2ccc(O)cc2)nc2ccc(Cl)cn12,-3.37
15,C=CCNc1oc(-c2ccc(OCC)cc2)nc1C#N,-15.3
16,CCOc1ccc2[nH]c(=O)c(CN(Cc3ccco3)C(CC)c3nnnn3Cc3ccccc3)cc2c1 (centres unmarked),-12.5
17,O=C(Cn1c(-c2cncs2)nc2ccccc21)NCc1ccccc1,10.8
18,CCc1noc(C)c1C(=O)NC1CC(C)(C)Cc2c1cnn2-c1ccccc1 (centres unmarked),5.9
19,Nc1ccc(C(=O)NC2CCSc3ccccc32)cc1[N+](=O)[O-] (centres unmarked),-27.5
20,CCNC(=O)C12CCC(C)(c3nc4cc(C)c(C)cc4nc31)C2(C)C (centres unmarked),33.5
